Results on 26 molecules are retold here after ChEMBL document CHEMBL1157539, “Thousands of chemical starting points for antimalarial lead identification” (Nature, 2010).

Whole data set: some 13,000 compounds, median “IFI” near 4, cut for the highest 2% near 17. Some of the results follow.

This assay is described as follows: GSK_TCMDC: Inhibition Frequency Index (IFI). The number of non-kinase HTS assays where a compound showed > 50 % inhibition, expressed as a percentage of the number of such assays in which the compound was tested (-0 is zero). Format: functional.
For `Cc1noc(NC(=O)c2sc3ccccc3c2O)c1C`, the IFI came out at 2.46%. `O=C(NCCN1CCOCC1)c1ccc(O)c(-c2cccc(C(F)(F)F)c2)c1` came in with an IFI of 0.75%. Take `Cc1nc(C)c(-c2ccc(Oc3cc(Cl)cc(Cl)c3)cc2)c(O)c1Cl`: the IFI worked out at 2.27%. In the case of `Cc1cccn2c(=O)c3cc(C(=O)NCc4cccnc4)c(=N)n(CCc4ccccc4)c3nc12` it was 2.84%; in that of `CN(C)C(=O)c1ccc(CN(Cc2ccc(OC(C)(C)C)cc2)Cc2ccc3c(c2)OCCO3)cc1`, 6.32%. Molecule `CCC(O)c1ccc(Br)cc1NC(=O)c1cccc(Cl)c1` (stereo unspecified) yielded an IFI of 4.35%.

The molecule `CCOC(=O)c1c(SCc2cccc(F)c2F)[nH]c2ccccc2c1=O` had an IFI of 2.78%. In turn, `CCc1ccc(-n2cc(C(=O)c3cc(Br)ccc3O)cc(C#N)c2=O)cc1` displayed an IFI of 15.9%. `CC(C)NCc1ccc(-c2cccc(-c3nc4ccccc4[nH]3)c2)cc1` had an IFI of 3.81%. In the case of `Cc1ccc(CN2CCCN(Cc3cccc(NC(=O)c4cc5ccccc5s4)c3)CC2)cc1C` it was 9.92%. For `CCOc1cc2ncnc(Nc3ccc(OCc4c(Cl)cccc4Cl)c(OC)c3)c2cc1OCC` the value was -0%; for `O=C(Nc1ccc(C(=O)OCC2CCCN3CCCCC23)cc1)c1ccc([N+](=O)[O-])cc1` (stereo unspecified), 0.76%; for `NCc1cccc(-c2cccc(CNC3CCN(Cc4ccccc4)CC3)c2)c1`, 1.45%. For `COc1cc2c(cc1OCCN1CCC(N)CC1)N(C(=O)/C=C/c1ccccc1Cl)CC2` the value was 5.63%; for `COc1ccc(CNCCc2cccs2)cc1-c1cccc(S(=O)(=O)NCCN2CCCC2)c1`, 9.8%.

For the molecule `O=C(/C=C/c1ccc(Cl)c(Cl)c1)NCCCCN1CCCN(C(=O)Nc2cc(Cl)cc(Cl)c2)CC1`, the IFI is 7.44%. As for `CC(C)NCc1ccc(-c2ccc(NC(=O)c3ccc(C#N)cc3)cc2)cc1`, the IFI came out at 4.12%. Regarding `O=C(Nc1ccc(F)cc1F)NC1CCN(CCCCCNC(=O)C2CC2c2ccc(Cl)c(Cl)c2)CC1` (stereo unspecified), the IFI was determined as 12.8%.

`CC(C)(C)c1ccc(CN2CCC(CNC(=O)c3cc(-c4cccc(C(F)(F)F)c4)cs3)C2)cc1` (stereo unspecified) showed an IFI of 16%.

`Cc1ccc(Cn2nc(Cl)c(N3CCNCC3)cc2=O)cc1NC(=O)Nc1ccc(-c2ccccc2)cc1` came in with an IFI of 10.4%. For `COc1ccc2ccccc2c1CCCCN1CCN(CC(c2ccc(F)cc2)N2CCN(C3CCCC3)CC2)CC1` (stereo unspecified), the IFI stood at 12.8%. Regarding `CC1(C)NC(N)=NC(=N)N1OCCOc1cccc(C(F)(F)F)c1`, the IFI was determined as 3.7%. `CCn1cc(C=C2Oc3c(ccc(O)c3CN3CCCCC3C)C2=O)c2ccccc21` (stereo unspecified) returned an IFI of 2.63%. For `O=C(Nc1cccc(Cl)c1)c1cc2ccccc2cc1O` the value was 4.69%; for `COc1ccccc1C1CCN(C2CCC(NC(=O)/C=C/c3cc(C(F)(F)F)ccc3F)CC2)CC1` (stereo unspecified), 8.2%. As to `C=C1C(C(=O)OCC)=CN(CC)c2cc(O[C@H]3CCN(C(=O)OC(C)(C)C)C3)ccc21`, the IFI was -0%.
